The whole screen tested about 48,000 compounds, of which about 450 (0.94%) were called active. The shares of active, inactive and inconclusive entries below differ from those in the screen. Calls follow the shape of the dose curve; as a rule, active = well fitted inhibition curve with a large enough effect; inconclusive = small, poorly fitted or top-dose-only effect; inactive = no such curve, though single readings can be large or run the other way. Potencies beside an inconclusive call are fits to weak or partial responses and may not hold up.
Assay: Primary qHTS for Identification of Small Molecule Inhibitors of Huntingtin Promoter Activity; also: nearly all actives have a fitted effect of over 50% in size
Conditions: HEK293 HTT promoter firefly luciferase reporter (activity 0% = vehicle and -100% = no light), 24 h; series mostly up to 57.5 µM
Outline: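 HEK293 Fluc reporter, 2,500 cells/well, 24 h pre-culture; cpds up to 57.5 uM final, 24 h 37 degrees C; Dual-Glo, 10 min RT; normalized vehicle = 0%, zero RLU = -100%.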
For `CCOc1ccc(CN2CCc3nc(N4CCN(c5ccccn5)CC4)ncc3C2)cc1OC`, the Potency was inconclusive: 11.2 µM [inhibitor, partial curve, poor fit]. For `Cc1ccc(C(=O)c2cn(Cc3ccccc3C)c3nc(C)ccc3c2=O)cc1`, the Potency was inconclusive: 39.8 µM [inhibitor, single point]. For `CCCc1cnc2c(c1SCc1cccc(F)c1)c(=O)n(C)c(=O)n2C`, the Potency was inconclusive: 35.5 µM [inhibitor, single point]. With `COc1ccc(CNC(=O)Cc2csc3nc(-c4ccc(F)cc4)cn23)cc1` the Potency was inconclusive: 20 µM [inhibitor, single point]. With `CCOc1ccc(NC(=O)C(=O)NCC(c2cccnc2)N2CCc3ccccc32)cc1` (stereo not drawn) the Potency was inconclusive: 39.8 µM [inhibitor, single point]. In the case of `COc1ccc(-c2nc(SCC(=O)NC3CCCC3)c(-c3ccc(C)cc3)[nH]2)cc1OC`, the Potency is reported as inconclusive: 39.8 µM [inhibitor, single point]. In the case of `C#CC(C)(CC)NC(=O)Cn1nnc(-c2ccc(OCc3c(F)cccc3Cl)cc2)n1` (stereo not drawn), the Potency is reported as inconclusive: 39.8 µM [inhibitor, single point]. In the case of `O=C(CSc1ncc2c(n1)-c1ccccc1N(Cc1ccc(F)cc1)S2(=O)=O)NCCc1ccccc1`, the Potency is reported as “inactive”. With `CCOc1ccc(-c2nc3ccccc3c(=O)o2)cc1` the Potency was “inactive”. With `COc1ccc2c(c1)-c1nc(NC(=O)c3cc(OC)c(OC)c(OC)c3)sc1CC2` the Potency was inconclusive: 39.8 µM [inhibitor, single point]. With `Cc1cc(C)cc(C(=O)N2CC(=O)Nc3ccc(Br)cc3C2c2ccccc2)c1` (stereo not drawn) the Potency was inconclusive: 39.8 µM [inhibitor, single point]. With `COc1cccc(CNC(=O)Nc2cc(C(=O)NCc3cccc(F)c3)ccc2N2CCCC2)c1` the Potency was inconclusive: 28.2 µM [inhibitor, partial curve, poor fit]. With `O=C1NC(=O)C(=Cc2ccc3c(c2)OC(F)(F)O3)S1` the Potency was “inactive”. With `CCOc1cc(CNC(=O)c2ccc(NC(=O)c3nsc4ccccc34)cc2)ccc1OC` the Potency was inconclusive: 20 µM [inhibitor, single point]. For `CCOc1ccc(NC(=O)CC2C(=O)N(c3cccc(OC)c3)C(=O)N2C2CCCCC2)cc1` (stereo not drawn), the Potency was inconclusive: 35.5 µM [inhibitor, partial curve, poor fit]. In the case of `CCc1cccc(C)c1Nc1c(-c2ccc(N(C)C)cc2)nc2ncccn12`, the Potency is reported as inconclusive: 39.8 µM [inhibitor, single point]. For `Cc1ccc(C)c(CN2C(=O)c3ccccc3Sc3ccc(C(=O)NCc4ccco4)cc32)c1`, the Potency was inconclusive: 14.1 µM [inhibitor, partial curve, poor fit]. With `O=C(NCCSc1c(-c2ccc(Br)cc2)[nH]c2ccccc12)c1ccc(S(=O)(=O)N2CCOCC2)cc1` the Potency was inconclusive: 17.8 µM [inhibitor, partial curve]. In the case of `COc1cc(C(C)=O)ccc1OCCCN1CCC(c2noc3cc(F)ccc23)CC1`, the Potency is reported as “inactive”. With `O=C1C(c2ccc(C(F)(F)F)cc2)=C(Nc2ccc(Cl)cc2)c2ccccc21` the Potency was inconclusive: 10 µM [inhibitor, partial curve]. In the case of `Cc1ccc(NC(=O)CSc2nnc(-c3cc4occc4n3C)n2-c2ccccc2C)cc1F`, the Potency is reported as inconclusive: 39.8 µM [inhibitor, single point]. For `CCOc1ccccc1NC(=O)C1CCCN(S(=O)(=O)c2ccc3c(c2)CCCN3C(C)=O)C1` (stereo not drawn), the Potency was inconclusive: 22.4 µM [inhibitor, single point]. For `CCc1ccc(S(=O)(=O)c2nnn3c2nc(Nc2cccc(C)c2C)c2sccc23)cc1`, the Potency was inconclusive: 39.8 µM [inhibitor, single point]. With `CCC(=O)N1c2nc(C(C)C)nn2C2(CCCCC2)[C@@H]2CCCC[C@@H]21` the Potency was inconclusive: 1.12 µM [inhibitor, full curve]. In the case of `CCOC(=O)c1cccc(NC(=O)C2CCN(c3nnc(C)c4c(C)n(-c5ccccc5)nc34)CC2)c1`, the Potency is reported as “inactive”. In the case of `O=C(NNc1ncnc2c1cnn2-c1ccccc1)c1ccccc1`, the Potency is reported as “inactive”. With `CCCc1oc2ccc(NS(=O)(=O)c3ccc(OC)cc3)cc2c1C(=O)OCC` the Potency was inconclusive: 8.91 µM [inhibitor, partial curve, poor fit]. In the case of `CN[C@@H]1C[C@H]2O[C@@](C)([C@H]1OC)n1c3ccccc3c3c4c(c5c6ccccc6n2c5c31)C(=O)N[C@H]4O`, the Potency is reported as inconclusive: 1.93 µM [inhibitor, full curve]. With `CCOC(=O)c1c(NC(C)=O)c2c3c(sc2n1Cc1cccc(Cl)c1)CCCC3` the Potency was “inactive”. For `Cc1ccc(C(CC(=O)Nc2ccc(C)cc2C)N2Cc3ccccc3C2=O)cc1` (stereo not drawn), the Potency was inconclusive: 35.5 µM [inhibitor, partial curve, poor fit]. In the case of `Cc1ccc(C2c3c(-c4cc(C)ccc4O)n[nH]c3C(=O)N2Cc2ccco2)cc1` (stereo not drawn), the Potency is reported as “inactive”. In the case of `CC(C(=O)NCc1ccccc1Cl)n1ccc2cc(S(=O)(=O)N3CCCCC3)ccc21` (stereo not drawn), the Potency is reported as inconclusive: 15.8 µM [inhibitor, partial curve, poor fit]. With `Cc1ccc(C)c(N2CCN(C(=O)Nc3cn(CC(C)C)c(=O)c4ccccc34)CC2)c1` the Potency was inconclusive: 25.1 µM [inhibitor, single point]. With `COc1cccc(Cn2c(=O)n(CC3CCC(C(=O)N4CCCCC4)CC3)c(=O)c3sccc32)c1` (stereo not drawn) the Potency was inconclusive: 15.8 µM [inhibitor, partial curve]. For `CCOC(=O)N1CCN(Cc2nc3cc(NC(C)=O)ccc3n2C(C)C)CC1`, the Potency was inconclusive: 10 µM [inhibitor, partial curve, poor fit]. For `CCOC(=O)c1cc(-c2ccc(C)cc2)n(CCC(=O)Nc2nc3c(C)cccc3s2)c1C`, the Potency was inconclusive: 28.2 µM [inhibitor, single point]. In the case of `Cc1ccc2c(c1)c(=O)c1ccccc1n2CCCC(=O)Nc1ccc(C)c(F)c1`, the Potency is reported as inconclusive: 39.8 µM [inhibitor, single point]. In the case of `CCc1cccc(C)c1NS(=O)(=O)c1cc(-c2cc(C)no2)ccc1C`, the Potency is reported as inconclusive: 28.2 µM [inhibitor, single point].

Source: PubChem BioAssay AID1508623 (National Center for Advancing Translational Sciences (NCATS), 2021)
Potency is read from the fitted curve at half-maximal effect; tags tell the direction and shape of the fitted curve.
